# Measured values as given in article PMC4336329 (PLoS ONE, 2015).
# Screen size: about 310,000 compounds; about 2,200 (0.71%) showed an effect of 50% or more. The effect is printed as a negative number. Some of the results follow.
# Target: human ether-à-go-go-related gene (hERG) potassium channel (human, UniProt Q12809)
# Test: primary screen, population patch clamp on CHO cells stably expressing hERG
# Sequence of human ether-à-go-go-related gene (hERG) potassium channel (Q12809 whole entry, looked up): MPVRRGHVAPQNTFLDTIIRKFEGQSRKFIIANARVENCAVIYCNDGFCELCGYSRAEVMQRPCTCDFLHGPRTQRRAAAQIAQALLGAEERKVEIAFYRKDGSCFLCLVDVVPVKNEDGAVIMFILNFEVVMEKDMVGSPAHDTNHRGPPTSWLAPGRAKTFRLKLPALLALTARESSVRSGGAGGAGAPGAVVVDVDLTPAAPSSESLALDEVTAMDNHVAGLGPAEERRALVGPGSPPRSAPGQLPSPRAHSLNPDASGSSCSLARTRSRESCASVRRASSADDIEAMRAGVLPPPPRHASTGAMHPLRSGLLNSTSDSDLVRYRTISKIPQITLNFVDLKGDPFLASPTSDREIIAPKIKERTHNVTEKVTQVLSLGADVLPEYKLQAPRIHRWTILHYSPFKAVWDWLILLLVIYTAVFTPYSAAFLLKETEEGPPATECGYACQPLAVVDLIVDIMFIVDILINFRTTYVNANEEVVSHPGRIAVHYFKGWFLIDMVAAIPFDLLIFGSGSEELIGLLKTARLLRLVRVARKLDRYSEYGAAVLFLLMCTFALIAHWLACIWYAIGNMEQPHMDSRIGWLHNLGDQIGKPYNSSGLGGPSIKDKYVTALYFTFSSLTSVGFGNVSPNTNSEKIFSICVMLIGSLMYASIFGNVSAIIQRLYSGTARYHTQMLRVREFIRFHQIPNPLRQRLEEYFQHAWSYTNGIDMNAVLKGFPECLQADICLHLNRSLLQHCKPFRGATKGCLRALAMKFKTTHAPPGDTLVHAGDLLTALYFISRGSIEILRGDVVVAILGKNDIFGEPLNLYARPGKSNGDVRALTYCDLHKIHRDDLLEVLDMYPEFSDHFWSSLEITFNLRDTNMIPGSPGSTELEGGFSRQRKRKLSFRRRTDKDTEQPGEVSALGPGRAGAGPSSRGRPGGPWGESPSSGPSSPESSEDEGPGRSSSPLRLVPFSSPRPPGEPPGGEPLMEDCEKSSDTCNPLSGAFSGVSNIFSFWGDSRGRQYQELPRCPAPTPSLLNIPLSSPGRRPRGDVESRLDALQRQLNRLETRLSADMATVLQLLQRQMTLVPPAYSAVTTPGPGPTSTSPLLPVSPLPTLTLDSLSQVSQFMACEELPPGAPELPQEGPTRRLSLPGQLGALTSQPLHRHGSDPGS
row,Compound,"hERG current change (%, negative = inhibition) at 1uM"
1,CCc1ccccc1N1CCN(S(=O)(=O)c2cc(OC)ccc2OC)CC1,4.41%
2,O=C(Nc1cccc(Br)c1)c1c(O)c2c(n(Cc3ccccc3)c1=O)CCCC2,7.82%
3,OCC(O)C(O)C(O)C(O)c1nc2ccccc2[nH]1 (stereo not drawn),-6.45%
4,CCCCN1C(=O)C(O)(c2ccccc2)c2cc(Br)ccc21 (stereo not drawn),7.66%
5,O=C(Nc1cccc2ccccc12)c1cccc(F)c1,16%
6,Clc1ncnc2c1oc1ccccc12,9.26%
7,CCN(CC)CCN(C(=O)c1ccc(C(=O)c2ccccc2)cc1)c1nc2cc3c(cc2s1)OCO3.Cl,6.65%
8,CNS(=O)(=O)c1ccc(N=Cc2c(C)[nH]n(-c3ccc(C)cc3C)c2=O)cc1,19.5%
9,COc1ccc(-c2csc3ncnc(N4CCN(S(=O)(=O)c5cccc(C(F)(F)F)c5)CC4)c23)cc1,10.7%
10,CCN(CC(=O)N1CCOCC1)S(=O)(=O)c1cc(Cl)ccc1Cl,-3.77%
11,CCO[C@@H]1OC(C(=O)N2CCN(Cc3ccccc3)CC2)=C[C@H](c2coc3ccccc3c2=O)[C@H]1CCCO,10.4%
12,C=CCNC(=O)CN1CCN(Cc2ccc3c(c2)OCO3)CC1.Cl,8.67%
13,CCNC(=O)CC1C(=O)N(c2ccc(F)cc2)C(=O)N1CCc1sccc1C (stereo not drawn),0.0627%
14,COc1cccc(C(=O)COc2ccc3c(C)c(Cc4ccccc4)c(=O)oc3c2)c1,14.1%
15,Cc1cc(C)c2c(N)c(C(=O)c3ccc(Cl)cc3Cl)sc2n1,6.94%
16,CC(=O)C1=C(O)C(=O)N(CCNCCO)C1c1ccccc1 (stereo not drawn),1.25%
17,CCOc1ccc(C(=O)NC(=S)Nc2ccccc2N2CCOCC2)cc1Br,6.45%
18,CCN(CC)C(=O)CCNS(=O)(=O)c1ccc(C)cc1,14%
19,COc1ccc2c(c1)CC/C2=N\NC(=O)c1ccccc1,5.32%
20,CCN1c2ccccc2NC2N=C(OC)C(c3ccccc3)C21 (stereo not drawn),5.05%
21,CCOCCCNC(=O)CN1C(=O)COc2ccc(S(=O)(=O)N3CCCC3)cc21,16%
22,O=C1c2oc3ccc(Cl)cc3c(=O)c2C(c2ccccn2)N1CCCN1CCOCC1 (stereo not drawn),8.95%
23,O=C(Nc1ccccc1)c1ncoc1-c1ccc(Cl)cc1,13.7%

row,Compound,"hERG current change (%, negative = inhibition) at 1uM"
1,CCOC(=O)c1sc(NC(=O)CSc2n[nH]c(CC(C)C)n2)nc1C,-4.44%
2,Cc1cccc(CCNS(=O)(=O)c2ccc3c(c2)NC(=O)CO3)c1,10.7%
3,COc1ccccc1CNC(=O)CCS(=O)(=O)c1cccs1,21.2%
4,CC(C)OC(=O)CSc1nnc(-c2ccc(C(C)(C)C)cc2)n1N,-1.9%
5,Cc1ccc(NC(=O)Nc2cnccn2)c(C)c1,9.35%
6,COc1cc(OC)c2c(c1)S(=O)(=O)C(c1ccccc1)=C2N,16.5%
7,O=C(NC(=S)Nc1cc([N+](=O)[O-])ccc1O)c1cccnc1,13%
8,Cc1ccc(C)c(N(CC(=O)N2CCCC2)S(C)(=O)=O)c1,17.3%
9,Cc1nc(-c2nc(C(=O)NNS(C)(=O)=O)cs2)cs1,7.5%
10,Cn1nc(C(=O)N2CCc3ccccc32)c2ccccc2c1=O,18.3%
11,CC(=O)NCC(=O)N(c1ccccc1)C1(C(=O)NC2CCCCC2)CCCCC1,7.2%
12,CCc1cccc2sc(NC(=O)c3ccc(N4C(=O)CCC4=O)cc3)nc12,20.5%
13,CCOC(=O)[C@@H]1[C@H]2COc3cc(OC)ccc3[C@@H]2N2C(=O)N(c3ccc(Br)cc3)C(=O)[C@@]12C,5.83%
14,Cc1cc(NC(=O)c2ccccc2C)no1,7.51%
15,c1ccc2oc(Cc3ccc(Cc4nc5ccccc5o4)cc3)nc2c1,8.95%
16,O=C(COCc1cc(-c2ccc3c(c2)OCO3)on1)Nc1cccnc1,12.1%
17,C=CCNC(=S)N1CCN(c2cc3c(cc2F)c(=O)c(C(=O)O)cn3CC)CC1,9.41%
18,O=C(O)/C=C/c1cccc(NC(=O)c2ccc(Cl)cc2)c1,17.1%
19,COc1cc(CNC(=O)c2ccc3oc(C(C)C)nc3c2)cc(OC)c1,-1.26%
20,COc1ccc2nc(N(CCN(C)C)C(=O)c3ccc4c(c3)OCCO4)sc2c1.Cl,0.359%
21,Cc1ccc(NC(=O)CCc2nnc3ccc(N4CCC(C)CC4)nn23)nc1,5.56%
22,COC(=O)C1=C(C)N(c2cccc(C)c2)C(=O)/C1=C\c1cccs1,12.2%
